Assay results from PubChem BioAssay AID1240 (Sanford-Burnham Center for Chemical Genomics, 2008).
Screen size: about 50,000 compounds; about 800 (1.6%) showed an effect of 50% or more. This is one part of the list.

molecular target: Bcl-2-like protein 10 (Homo sapiens) (UniProt Q9HD36); assay: TR3 peptide-Bcl-B binding displacers, biochemical primary FP assay, phenotype converters (AID 1240); details: GST-Bcl-B / FITC-TR3 peptide fluorescence polarization; stronger effect = higher value; compound at 3.75 mg/L;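 note: 0% = Bcl-B with tracer peptide and DMSO and 100% = tracer peptide lacking Bcl-B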
Sequence of UniProt Q9HD36 (Q9HD36 whole entry, looked up): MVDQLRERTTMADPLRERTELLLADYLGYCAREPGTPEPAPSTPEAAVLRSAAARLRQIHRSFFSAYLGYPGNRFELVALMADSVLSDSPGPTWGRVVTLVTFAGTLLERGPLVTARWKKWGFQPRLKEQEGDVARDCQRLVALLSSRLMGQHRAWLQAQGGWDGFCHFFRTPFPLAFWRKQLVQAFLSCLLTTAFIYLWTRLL

| Compound | displacement [%] |
| --- | --- |
| COc1ccccc1/C=C1\C(=O)Nc2ccccc21 | 7.9 |
| CCOC(=O)c1c(NC(=O)CN2CCN(C)CC2)sc2c1CCN(C(=O)OCC)C2 | 2.2 |
| CCC(=O)Nc1ccc(S(=O)(=O)N2CCCCCC2)cc1 | 6.5 |
| CCN1C(=O)/C(=C/c2ccc(OC(=O)c3ccc(F)cc3)c(OC)c2)SC1=S | -7.2 |
| CCc1ccc(/C=C2/C(=O)NC(=O)N(c3cccc(C)c3)C2=O)cc1 | -8.7 |
| Cc1ccc(CNC(=O)C(=O)NCc2ccccc2)cc1 | 7.7 |
| Clc1ccc(OCCCN2CCCC2)cc1 | 11.6 |
| CC(C)CC(=O)Nc1ccc(F)c([N+](=O)[O-])c1 | 1.2 |
| Cc1cc2nc3n(c2cc1C)CCN3 | -8.8 |
| COc1ccc(S(=O)(=O)NNC(=O)c2cccc(Br)c2)cc1 | 1.4 |
| Cc1ccc(N2CN=C(c3ccccc3)NC2=S)cc1 | 14.2 |
| Nc1nnc(CC(=O)N/N=C/c2ccc(Cl)cc2Cl)s1 | 40.9 |
| Cc1ccc(NC(=O)c2cccs2)cc1 | 7.6 |
| CC(NC(=O)CN(c1cccc(C(F)(F)F)c1)S(C)(=O)=O)c1ccccc1 (stereo not drawn) | 0.7 |
| Cc1ccc(C(=O)Nc2cccc(O)c2)cc1S(=O)(=O)N1CCCCC1 | -14.1 |
| COc1ccc(-c2nnc(-c3sc4cc(C)ccc4c3Cl)o2)cc1 | -3.8 |
| O=C(c1ccc(F)cc1)c1ccc(N2CCOCC2)cc1 | 3.9 |
| CC(=O)Nc1cccc(NC(=O)c2ccccc2[N+](=O)[O-])c1 | -0.5 |
| CCOC(=O)C12CC3CC(C1)CC(C(=O)OCC)(C3)C2 | -7.4 |
| O=C(NC1CCS(=O)(=O)C1)/C(NC(=O)c1ccccc1)=C(/Sc1ccccn1)c1ccccc1 (stereo not drawn) | 8.5 |
| Cc1cccc(C(=O)O/N=C(\c2ccncc2)c2ccc([N+](=O)[O-])cc2)c1 | 4.4 |
| Cc1ccc(-c2cc(C(F)(F)F)n3ncnc3n2)cc1 | 2.3 |
| COC(=O)c1cc(NC(=O)C(C)Oc2ccccc2)cc(C(=O)OC)c1 (stereo not drawn) | 4.6 |
| CC(Oc1ccccc1)C(=O)Nc1cc(C(=O)Nc2ccccc2)ccc1Cl (stereo not drawn) | 1.2 |
| Cc1ccc(C(=O)/C=C/c2ccc(-c3ccc(Cl)cc3)o2)cc1 | 17.9 |

| Compound | displacement [%] |
| --- | --- |
| O=[N+]([O-])c1ccc(OCC(O)CNc2ccccc2)cc1 (stereo not drawn) | 2.4 |
| CCOC(=O)c1c(-c2ccc(OC)cc2)csc1NC(=O)c1ccccc1Br | -0.3 |
| O=[N+]([O-])c1ccc(OCCN2CCOCC2)cc1 | 10.1 |
| CC(C)(C)NC(=O)CN(Cc1ccccc1)S(=O)(=O)c1ccc(Br)cc1 | 1.1 |
| CCOc1ccccc1NC(=O)c1c(NC(=O)COc2ccccc2)sc2c1CCC(C)C2 (stereo not drawn) | -4.5 |
| Cc1c(NC(=O)c2ccc(Cl)c(Cl)c2)c(=O)n(-c2ccccc2)n1C | 13.2 |
| COc1ccc(/C=C2\SC(=S)N(NC(=O)c3ccccc3C)C2=O)cc1 | -9.5 |
| Nc1nc(-c2ccc(Cl)cc2)c(-c2ccc([N+](=O)[O-])cc2)s1 | 5.6 |
| Cc1ccc2nsnc2c1NC(=O)S(=O)(=O)c1ccccc1 | 6.6 |
| CCCN1C(=O)c2ccccc2NC1c1ccc2c(c1)OCO2 (stereo not drawn) | 19.7 |
| CC1(C)CC(=O)c2nc(NC(=O)Cc3ccc(Cl)cc3)ncc2C1 | -1 |
| COc1ccc(CCNC(=S)Nc2cccc(C(F)(F)F)c2)cc1OC | 0.9 |
| Cc1c(C#N)c2nc[nH]c(=O)c2n1-c1ccccc1 | -5.2 |
| O=S(=O)(Cc1ccccc1)CC(O)COCc1ccccc1 (stereo not drawn) | 13.2 |
| Cn1c(=O)c([N+](=O)[O-])c(N2CCN(c3ccccn3)CC2)c2ccccc21 | 2.2 |
| CCCC(NC(=O)c1ccccc1)C(=O)OCC(=O)Nc1nc2ccc(OC)cc2s1 (stereo not drawn) | 13.8 |
| CCc1ccc(CNCc2ccccc2OC)cc1 | -20 |
| CC(C)=CCC(C)(C)CN(C=O)CC(C)(C)CC=C(C)C | -11.8 |
| Cc1cc(=O)oc2c(C)c(O)c([N+](=O)[O-])cc12 | -2.7 |
| COc1ccc(/C=N/S(=O)(=O)c2cccs2)cc1 | 6.8 |
| O=C(Nc1ncccn1)c1ccc(Cl)s1 | 5.4 |
| O=C(Nc1ccc2c(c1)OCO2)c1nn2c(c1Cl)NC(c1cccs1)CC2C(F)(F)F (stereo not drawn) | 1.1 |
| Nc1ccc(S(=O)(=O)O)c2cccc(O)c12 | 1.8 |
| COc1ccc(CNc2cc([N+](=O)[O-])ccc2OC)c(OC)c1 | -1.4 |
| CCN1CCN(S(=O)(=O)c2c(C)cc(C)cc2C)CC1 | -3.8 |

| Compound | displacement [%] |
| --- | --- |
| Brc1ccccc1/C=N\N1CCN(c2ccccc2)CC1 | -13.8 |
| CN1CCN(C(=O)c2ccccc2NC(=O)Cc2ccccc2)CC1 | -7.6 |
| COc1cc(/C=N/Nc2nc(N3CCCCC3)nc(N3CCCCC3)n2)cc(Cl)c1O | 1.2 |
| Cc1ccc(NC(=O)CN(c2cccc([N+](=O)[O-])c2)S(=O)(=O)c2ccccc2)cc1Cl | 7.5 |
| Clc1ccc(C=NN2CCN(Cc3ccccc3Cl)CC2)c(Cl)c1 | -4.6 |
| Cc1ccc(C(=O)/C=C(/N)C(F)(F)F)cc1 | 11 |
| O=C(COc1ccccc1[N+](=O)[O-])Nc1ccc(OC(F)(F)F)cc1 | 3.8 |
| O=C(Nc1ccc(S(=O)(=O)N2CCc3ccccc32)cc1)c1ccc(Cl)cc1 | 0.8 |
| Cc1cc(C)c(NC(=O)c2c(-c3ccccc3Cl)noc2C)c(C)c1 | 4.2 |
| COc1ccc(NC(=O)Nc2ccc(Cc3ccncc3)cc2)cc1 | 4.9 |
| O=C(CCCN1C(=O)/C(=C\c2cccc(Br)c2)SC1=S)Nc1ccc(C(=O)O)cc1 | 13.2 |
| CCOC(=O)CSc1nc(N)c2c3c(sc2n1)CCCCC3 | -4.6 |
| COc1ccc2c(c1)-c1c(sn(-c3ccc(Br)cc3)c1=S)C(C)(C)N2 | 3.4 |
| CC(NC(=O)CN1CCOCC1)C1CC1 (stereo not drawn) | 4.8 |
| Cc1ccccc1/C=N/Nc1ccc([N+](=O)[O-])cc1 | -11 |
| COc1ccc2c(c1C)CCC/C2=N\OC(=O)c1ccccc1F | -3.4 |
| CCOc1ccc(S(=O)(=O)NCc2ccco2)c2ccccc12 | 5.4 |
| O=C(c1ccc2c(c1)OCO2)N1CCN(c2ccc(Cl)cc2)CC1 | 11 |
| Cc1cccc(OCC(=O)NC(C)C)c1 | -5.2 |
| COc1ccc(C2CC(=O)CC(c3ccc(OC)cc3)S2)cc1 (stereo not drawn) | -1.2 |
| O=C(Cc1ccc([N+](=O)[O-])cc1)N/N=C/c1ccccn1 | -5.2 |
| O=C(N/N=C/c1ccc(O)c(O)c1)c1cccc(F)c1 | -6.6 |
| CCOc1ccccc1C1C(C(=O)Nc2ccccc2OC)=C(C)NC2=C1C(=O)CC(C)(C)C2 (stereo not drawn) | 0 |
